In PubChem BioAssay AID485281 (National Center for Advancing Translational Sciences (NCATS), 2010):
Several values for one entry are separate records, joined by “and”; a condition that tells them apart may be missing. Identical values can stand only once. Screen size: about 350,000 compounds; about 260 (0.074%) were called active. The inconclusive results got no clear call from the source; some entries with a clear call stand among them for comparison. Calls follow the shape of the dose curve; as a rule, active = well fitted inhibition curve with a large enough effect; inconclusive = small, poorly fitted or top-dose-only effect; inactive = no such curve, though single readings can be large or run the other way. Where the call is inconclusive, the potency comes from a doubtful curve fit.

target: Ferritin light chain (Equus caballus) (UniProt P02791); test: qHTS Assay for Identification of Novel General Anesthetics; details: apoferritin/1-aminoanthracene competitive binding, fluorescence; series mostly up to 77.5 µM; also: nearly all actives have a fitted effect of over 20% in size
Outline: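 10 uM apoferritin + 50% sat. 1-AMA, PBS; cpd 10 min RT; Ex380/Em535 endpoint; normalized to free probe vs complex; 4-param Hill fit; propofol titration as pos. ctrl.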
Potency is read from the fitted curve at half-maximal effect; tags tell the direction and shape of the fitted curve.

Sequence of UniProt P02791 (P02791 whole entry, looked up): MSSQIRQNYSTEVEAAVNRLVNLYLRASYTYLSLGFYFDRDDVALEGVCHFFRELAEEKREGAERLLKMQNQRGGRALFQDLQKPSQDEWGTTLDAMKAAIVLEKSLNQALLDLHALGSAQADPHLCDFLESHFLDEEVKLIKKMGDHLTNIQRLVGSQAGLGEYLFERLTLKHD

| SMILES | Potency |
| --- | --- |
| S=C(NNc1cccc(Cl)c1)NC1CCCCC1 | inconclusive: 17.8 µM [inhibitor, partial curve] |
| CC1=CC(c2ccc(Cl)cc2)n2nc(NC(=O)c3ccccc3)nc2N1 (stereo not given) | inconclusive: 39.8 µM [inhibitor, partial curve] |
| Cc1ccc(S(=O)(=O)NNC(=O)CCC(=O)Nc2ccccc2Cl)cc1 | inconclusive: 12.6 µM [inhibitor, partial curve] |
| Cc1ccc(C)c(N2CCN(C(=O)c3ccc(NC(=O)c4nsc5ccccc45)cc3)CC2)c1 | inconclusive: 3.55 µM [inhibitor, full curve, poor fit] |
| CCc1ccccc1NC(=O)Nc1c[nH]c(=O)[nH]c1=O | inactive |
| Oc1c(CN2CCCCC2)cc(Br)c2cccnc12 | inconclusive: 35.5 µM [inhibitor, partial curve] |
| Nc1n[nH]c(N)c1N=Nc1ccc(F)cc1 | inconclusive: 35.5 µM [inhibitor, single point] |
| CC1CCCN(CCCNC(=O)c2ccc3c(c2)N(Cc2ccccc2F)C(=O)c2ccccc2S3(=O)=O)C1 (stereo not given) | inconclusive: 7.94 µM [inhibitor, partial curve] and inconclusive: 28.2 µM [inhibitor, partial curve] |
| Cc1ccc(C(=O)Nn2cnc3scc(-c4cccs4)c3c2=O)c(O)c1 | inconclusive: 31.6 µM [inhibitor, partial curve] |
| O=C(NNc1ccc([N+](=O)[O-])cc1)C12CC3CC(CC(C3)C1)C2 | inconclusive: 14.1 µM [inhibitor, partial curve] |
| COc1ccc(C2=Nn3c(nnc3-c3cc(OC)cc(OC)c3)SC2)cc1 | inconclusive: 25.1 µM [inhibitor, partial curve] |
| CC(C)(C)c1ccc(NC(=O)C2CCCN(c3cnccn3)C2)cc1 (stereo not given) | inconclusive: 35.5 µM [inhibitor, partial curve] and inconclusive: 28.2 µM [inhibitor, partial curve] |
| CCC(C)(C)NC(=O)c1ccc2c(c1)S(=O)(=O)c1ccccc1C2=O | inconclusive: 39.8 µM [inhibitor, partial curve] |
| O=C(Nc1ccc(O)c2c(=O)cc(-c3ccccc3Cl)oc12)c1ccc(Br)cc1 | inconclusive: 31.6 µM [inhibitor, partial curve] |
| O=C(CC(Sc1ccccc1)c1cccs1)c1ccco1 (stereo not given) | inconclusive: 28.2 µM [inhibitor, partial curve] |
| COc1ccc(N2CCN(C(=O)c3ccc(C)cc3)CC2)c([N+](=O)[O-])c1 | inconclusive: 50.1 µM [inhibitor, single point] |
| CCCc1cc(-c2n[nH]c(=S)n2-c2cccc(C)c2)cs1 | inconclusive: 35.5 µM [inhibitor, partial curve] |
| COc1ccc(C=O)cc1COc1ccc(C)cc1[N+](=O)[O-] | inconclusive: 20 µM [inhibitor, partial curve] |
| C/C(=C\C(=O)c1ccc(C)o1)Nc1ccc(C(=O)O)cc1C | inactive |
| COc1ccc(C2C(C(=O)c3ccc(C)o3)=C(O)C(=O)N2Cc2cccnc2)cc1OC (stereo not given) | inactive |
| COc1cc(CNCc2ccccc2)c(Br)cc1OC1CCCC1 | inconclusive: 12.6 µM [inhibitor, partial curve] |
| O=C(O)C(Cc1cn[nH]n1)=NO | inactive |

| SMILES | Potency |
| --- | --- |
| CCCCCCC1CC(CC(=O)Nc2ccc([N+](=O)[O-])cc2)C(=O)O1 (stereo not given) | inconclusive: 50.1 µM [inhibitor, single point] |
| Nc1cc2c([N+](=O)[O-])cccc2o1 | inconclusive: 39.8 µM [inhibitor, partial curve] |
| Cc1ccc(C)c(CN2C(=O)c3ccccc3S(=O)(=O)c3ccc(C(=O)N(C)C4CCCCC4)cc32)c1 | inconclusive: 3.55 µM [inhibitor, full curve] |
| Cc1ccc(S(=O)(=O)NCCNC(=O)c2cc(OCC(F)(F)F)ccc2OCC(F)(F)F)cc1 | inconclusive: 31.6 µM [inhibitor, single point] |
| COc1ccc(NC(=O)CC23CC4CC(CC(C4)C2)C3)cn1 | inconclusive: 14.1 µM [inhibitor, partial curve] |
| Nc1cc(C(=O)c2cccs2)ccc1Cl | inconclusive: 31.6 µM [inhibitor, partial curve] |
| NS(=O)(=O)c1ccc(NC(=S)NC(=O)c2ccco2)cc1 | inactive |
| CC1Sc2ccc(S(=O)(=O)CCC(=O)Nc3ccc(C(C)C)cc3)cc2NC1=O (stereo not given) | inactive |
| Cc1cccc(C(=O)O/N=C2\CCS(=O)(=O)c3sccc32)c1 | inactive |
| c1cnc(NC2C3CC4CC(C3)CC2C4)nc1 (stereo not given) | active: 5.62 µM |
| CCOC(=O)N1CCN(S(=O)(=O)c2ccc(C(=O)NNc3nc4c(C)cc(C)cc4s3)cc2)CC1 | inactive |
| CCCCCCCC(=O)N/N=C(\C)c1ccc(N)cc1 | inconclusive: 31.6 µM [inhibitor, partial curve] |
| Cc1ccc(C)c(-c2[nH]ncc2CN2CCCC(CO)(Cc3ccccc3C)C2)c1 (stereo not given) | inconclusive: 35.5 µM [inhibitor, single point] |
| CCOc1ccc(-c2nc(-c3ccc(OC)cc3)no2)cc1OCC | inactive |
| CC(C)(C)C(=O)O/N=C(\N)c1ccc(-c2csnn2)cc1 | inactive |
| Cc1ccccc1CSc1nc2c(c(=O)[nH]1)CCC2 | inconclusive: 11.2 µM [inhibitor, partial curve] |
| Cc1ccc(NC(=O)c2ccco2)c(NC(=O)c2ccc(Cl)cc2)c1 | inconclusive: 22.4 µM [inhibitor, single point] |
| O=C(O)CSCC(=O)N(Cc1ccccc1)c1nc(-c2ccccc2)c(-c2ccccc2)s1 | inactive |
| C=CCn1c(Cc2cccs2)nnc1SCC(=O)c1cccc(Br)c1 | inconclusive: 35.5 µM [inhibitor, partial curve] |
| CCC(=O)N1CCc2cc(Br)cc(S(=O)(=O)N3CCC(C(=O)Nc4ccc(OC)cc4)CC3)c21 | inactive |
| Cc1cccc(C)c1NS(=O)(=O)c1ccc(NC(=O)c2ccc(Cl)c([N+](=O)[O-])c2)cc1 | inconclusive: 2 µM [inhibitor, full curve, poor fit] |
| COc1ccccc1NS(=O)(=O)c1cccc(C(=O)N/N=C(\C)c2ccc(-n3ccnc3)cc2)c1 | inconclusive: 8.91 µM [inhibitor, partial curve] |

| SMILES | Potency |
| --- | --- |
| CCN1CCN(c2cc(N3CCc4ccccc4C3)c(F)cc2[N+](=O)[O-])CC1 | inconclusive: 56.2 µM [inhibitor, single point] |
| Cc1ccc(C)c(CSc2ccc3nnc(-c4ccccn4)n3n2)c1 | inconclusive: 10 µM [inhibitor, partial curve] |
| Cc1ccc2c(c1)cc(CN(Cc1ccco1)C(=O)COc1ccccc1)c1nnnn12 | inactive |
| Cc1cccc(C2=NN(c3ccccc3)[C@@H](C(=O)N3CCOC3=O)[C@@H]2c2ccc(Cl)cc2)c1 | inactive |
| COc1ccc(CNC(=O)c2cc(-c3ccc(OC)cc3)on2)cc1 | inconclusive: 7.94 µM [inhibitor, full curve, poor fit] |
| c1ccc(-c2nnc(CSc3ccc4c(c3)OCCO4)o2)cc1 | inconclusive: 35.5 µM [inhibitor, partial curve] |
| CSc1ccc(C(=O)/C=C/c2ccc(N)cc2)cc1 | inconclusive: 14.1 µM [inhibitor, partial curve] |
| Cc1cc2cc(CNC(=O)c3cccs3)ccc2n1C | inactive |
| COc1ccc(-n2cnnc2SCC(=O)c2ccc(S(=O)(=O)N3CCOCC3)cc2)cc1 | inconclusive: 35.5 µM [inhibitor, partial curve] |
| NC(=O)CC(NC(=O)c1ccccc1)c1ccc(N2CCC(Cc3ccccc3)CC2)c([N+](=O)[O-])c1 (stereo not given) | inconclusive: 14.1 µM [inhibitor, partial curve] |
| C=CCn1c(C)cc(C(=O)CSc2nnc(-c3cccc(S(=O)(=O)N(CC)CC)c3)o2)c1C | inactive |
| COc1ccc(N2CCN(C(=O)c3cccc(F)c3)CC2)c([N+](=O)[O-])c1 | inconclusive: 25.1 µM [inhibitor, partial curve] |
| O=C(CCl)Nc1cccc(-c2cnc3ccccc3n2)c1 | inconclusive: 28.2 µM [inhibitor, partial curve] |
| O=C(NC1CCCCCC1)c1cc2n(n1)C(C(F)(F)F)CC(c1ccco1)N2 (stereo not given) | inconclusive: 11.2 µM [inhibitor, partial curve] |
| COC(=O)C(/C=N/OCc1ccc([N+](=O)[O-])cc1)NC(=O)c1ccccc1 (stereo not given) | inconclusive: 35.5 µM [inhibitor, single point] |
| Cc1nonc1OCCNCCNc1ccc([N+](=O)[O-])cc1Cl | inconclusive: 31.6 µM [inhibitor, single point] |
| O=c1ccc(NS(=O)(=O)c2ccc(Cl)cc2)cn1Cc1ccc(Cl)c(Cl)c1 | inconclusive: 39.8 µM [inhibitor, single point] |
| N#Cc1c(-c2ccccc2)nc(SCC(=O)NC2CCCCC2)[nH]c1=O | inconclusive: 10 µM [inhibitor, partial curve] |
| CCCCN1C(=O)c2ccc(C(=O)Nc3c(N)n(CCCC)c(=O)n(C)c3=O)cc2C1=O | inconclusive: 28.2 µM [inhibitor, single point] |
| Cc1ccc(S(N)(=O)=O)cc1NC(=O)/C=C/c1cccs1 | inactive |
| CC(C)CCNC(=O)c1nnc(Cc2ccc(Cl)cc2)o1 | inconclusive: 2.51 µM [inhibitor, partial curve, poor fit] |
